# Assay results published in the supplement of paper PMC4604168 (melanoma cell lines).
# The list shows a part of the results. Most values come without repeats; read them as rough.
# Experiments:
# Assay in all cases: cell count relative to DMSO control; melanoma cells; higher = more viable cells
# Details in all cases: library dose: standard library concentration; 72 h
# SkMel28 = test system: SkMel28
# SkMel2 = test system: SkMel2
# SkMel30 = test system: SkMel30
# SkMel5 = test system: SkMel5
# UACC257 = test system: UACC257
# UACC62 = test system: UACC62
# WM115 = test system: WM115
# WM1716 = test system: WM1716
# WM1745 = test system: WM1745
# WM3526 = test system: WM3526
# 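Also: cells treated in 1,536-well plates, then fixed and DAPI-stained, with nuclei counted from automated high-throughput microscope images.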
SMILES,cell count (SkMel28) [%],cell count (SkMel2) [%],cell count (SkMel30) [%],cell count (SkMel5) [%],cell count (UACC257) [%],cell count (UACC62) [%],cell count (WM115) [%],cell count (WM1716) [%],cell count (WM1745) [%],cell count (WM3526) [%]
"OCc1c[nH]c2ccccc12 [Indole-3-carbinol] + COc1cc(Nc2ncc(F)c(Nc3ccc4c(n3)NC(=O)C(C)(C)O4)n2)cc(OC)c1OC [Tamatinib] (first compound 4 µM, partner dose 2 µM)",110,72.2,89.6,46.4,78.9,85.4,66.5,85.6,37.9,78.5
"Nc1cccc2c1CN(C1CCC(=O)NC1=O)C2=O (stereo not given) [lenalidomide] + CO[C@@H]1[C@H](N(C)C(=O)c2ccccc2)C[C@H]2O[C@]1(C)n1c3ccccc3c3c4c(c5c6ccccc6n2c5c31)C(=O)NC4 [Midostaurin] (first compound 5 µM, partner dose 0.4 µM)",87.6,74.9,88.1,57,80.3,62.3,70.7,57.9,36,81.7
"COCC[n+]1c2c(n(Cc3cnccn3)c1C)C(=O)c1ccccc1C2=O + O=C(Nc1cccc(Cl)c1)Nc1ncc(CCNc2ncnc3ccsc23)s1 [SNS314] (first compound 0.002 µM, partner dose 0.004 µM)",22.8,37.2,70,34.7,22.6,74.8,31.8,40.4,71.4,31
"Cn1c(Nc2ccc(C(F)(F)F)cc2)nc2cc(Oc3ccnc(-c4ncc(C(F)(F)F)[nH]4)c3)ccc21 + C=CCn1c(=O)c2cnc(Nc3ccc(N4CCN(C)CC4)cc3)nc2n1-c1cccc(C(C)(C)O)n1 [MK1775] (first compound 0.4 µM, partner dose 0.1 µM)",28.7,42.5,73.7,35.4,76.5,39.6,33.6,64.7,35.7,38.4
"Nc1cccc2c1CN(C1CCC(=O)NC1=O)C2=O (stereo not given) [lenalidomide] + Cn1nnc2c(C(N)=O)ncn2c1=O [temozolomide] (first compound 5 µM, partner dose 10 µM)",40.8,108,70.5,102,99,55.5,85.9,64.2,82.3,103
"COCC[n+]1c2c(n(Cc3cnccn3)c1C)C(=O)c1ccccc1C2=O + C[C@]1(c2nc3c(C(N)=O)cccc3[nH]2)CCCN1 [Veliparib] (first compound 0.002 µM, partner dose 7 µM)",47.7,36.8,78.4,59.7,25.5,50.5,50,67.9,85.2,49.1
"Nc1cccc2c1CN(C1CCC(=O)NC1=O)C2=O (stereo not given) [lenalidomide] + O=C(O)c1ccc(-c2c[nH]c3ncc(-c4ccccc4)cc23)cc1C1CCCC1 [GSK650394] (first compound 5 µM, partner dose 0.8 µM)",53.4,70.4,85,91.6,77.5,86,101,93.9,88.6,83.7
"O=C(CCCCCCC(=O)Nc1ccccc1)NO [vorinostat] + CO[C@@H]1[C@H](N(C)C(=O)c2ccccc2)C[C@H]2O[C@]1(C)n1c3ccccc3c3c4c(c5c6ccccc6n2c5c31)C(=O)NC4 [Midostaurin] (first compound 0.4 µM, partner dose 0.4 µM)",32.3,29.5,42.8,47.2,46.8,58.5,36.9,42.1,37.6,45.4
"Clc1ccc(Nc2nnc(Cc3ccncc3)c3ccccc23)cc1 [vatalanib] + O=C(O)c1ccc(-c2c[nH]c3ncc(-c4ccccc4)cc23)cc1C1CCCC1 [GSK650394] (first compound 10 µM, partner dose 0.8 µM)",74.7,63.3,69.7,58,66.7,89.1,75.5,73.5,28.4,57.9
"C#Cc1cccc(Nc2ncnc3cc(OCCOC)c(OCCOC)cc23)c1 [erlotinib] + CN(NC(=O)CC(=O)NN(C)C(=S)c1ccccc1)C(=S)c1ccccc1 [STA4783] (first compound 4 µM, partner dose 0.03 µM)",21.5,61.7,68.8,48,96.5,45.9,19.7,60.3,26.6,64.8
"C#Cc1cccc(Nc2ncnc3cc(OCCOC)c(OCCOC)cc23)c1 [erlotinib] + CCc1ccc(CCOc2ccc(CC3SC(=O)NC3=O)cc2)nc1 [pioglitazone] (first compound 4 µM, partner dose 10 µM)",50.8,94.1,68,63.1,102,81.3,86.3,80.5,58.9,72.3
"Cn1c(Nc2ccc(C(F)(F)F)cc2)nc2cc(Oc3ccnc(-c4ncc(C(F)(F)F)[nH]4)c3)ccc21 + Cn1cc(/C=C2\C(=O)Nc3cccnc32)c2ccccc21 [GW441756] (first compound 0.4 µM, partner dose 2 µM)",34.1,57.2,67.1,25.2,72.5,35.9,38.5,61.8,60.4,31.9
